Measurements: patent US20210340238A1, “TGFß1 INHIBITORS AND USE THEREOF” (Scholar Rock, Inc., priority 2018, published 2021)

Columns and labels:
Design in all cases: species or system human
[1] = system: Matrix-associated proTGFβ1 vs Cell-associated proTGFβ1; assay: Octet binding, matrix vs cell bias (G/D); conditions: ratio of cell average KD to ECM average KD
Description: (§1) Column (A) of the table provides monoclonal antibodies with discrete amino acid sequences. […] Columns (B), (C), (E) and (F) provide affinities of each of the listed antibodies, measured in KD, towards the antigen complex as indicated, respectively. […] Average KD values calculated from (B) and (C) are shown in the corresponding column (D), which collectively represents affinities of the antibodies to ECM- or matrix-associated proTGFβ1 complexes. Similarly, Average KD values calculated from (E) and (F) are shown in the corresponding column (G), which collectively represents affinities of the antibodies to cell-surface or cell-associated proTGF complexes. Finally, relative ratios between the average KD values from columns (D) and (G) are expressed as fold bias” in column (H). Thus, the greater the numerical of column (H) is, the greater bias exists for the particular antibody, when comparing binding preferences of the antibody for matrix-associated complexes to cell-surface complexes. This is one way of quantitatively representing and comparing inherent bias of antibodies to their target complexes. Such analyses may be useful in guiding the selection process for a candidate antibody for particular therapeutic use.

[2] = target: Matrix-associated proTGFβ1; assay: Octet binding, ECM average of hLTBP1 and hLTBP3 complexes; conditions: average KD of (B) and (C), read-out: (D) ECM AVRG
Description: as §1

Cell-associated proTGFβ1 = assay: Octet binding, cell average of hGARP and hLRRC33 complexes; conditions: average KD of (E) and (F), read-out: (G) Cell AVRG
Description: as §1

[3] = system: Matrix-associated proTGFβ1 vs Cell-associated proTGFβ1; assay: MSD-SET binding, matrix vs cell bias (G/D); conditions: ratio of cell average KD to ECM average KD
Description: (§2) Column (A) of the table provides monoclonal antibodies with discrete amino acid sequences. […] Columns (B), (C), (E) and (F) provide affinities of each of the listed antibodies, measured in KD, towards the antigen complex as indicated, respectively. […] Similarly, Average KD values calculated from (E) and (F) are shown in the corresponding column (G), which collectively represents affinities of the antibodies to cell-surface or cell-associated proTGF complexes. Finally, relative ratios between the average KD values from columns (D) and (G) are expressed as fold bias” in column (H). Thus, the greater the numerical of column (H) is, the greater bias exists for the particular antibody, when comparing binding preferences of the antibody for matrix-associated complexes to cell-surface complexes. This is one way of quantitatively representing and comparing inherent bias of antibodies to their target complexes. […] Select antibodies of the present disclosure, as measured by MSD-SET, show context-bias (i.e., greater than five-fold bias) or unbias (i.e., less than 5-fold bias) toward matrix-associated complexes over cell-associated complexes. […] In addition, the recombinant antibodies used in the Octet assay were expressed as IgG1 antibodies in yeast, while the antibodies used in the MSD assay were expressed as IgG4 antibodies in mammalian cells.

[4] = target: Matrix-associated proTGFβ1; assay: MSD-SET binding, ECM average of hLTBP1 and hLTBP3 complexes; conditions: average KD of (B) and (C), read-out: (D) ECM AVRG
Description: as §2

Row | Molecule | Kd [2] | Kd [4] | (H) G/D (fold bias) [1] | Kd (Cell-associated proTGFβ1) | (H) G/D (fold bias) [3]
1 | Ab36: monoclonal antibody binding proTGFβ1 complexes; VH SEQ ID NO: 240, VL SEQ ID NO: 211 (antibody, V domains shown) VH: EVQLLESGGGLVQPGGSLRLSCAASGFTFRNYAMSWVRQAPGKGLEWVSSISGSGGATYYADSVKGRFTISRDNSKNTLYLQMNSLRAEDTAVYYCARVSSGHWDLDYWGQGTLVTVSS VL: [… about 100 residues …]FTFGQGTKVEIK | 0.384 nM | – | 18.5156 fold | 7.11 nM | –
2 | Ab7: monoclonal antibody binding proTGFβ1 complexes; VH SEQ ID NO: 210, VL SEQ ID NO: 211 (antibody, V domains shown) VH: EVQLLESGGGLVQPGGSLRLSCAASGFTFADYAMTWVRQAPGKGLEWVSAISGTGAHTYYADSVKGRFTISRDNSKNTLYLQMNSLRAEDTAVYYCARVSSGHWDFDYWGQGTLVTVSS VL: [… about 100 residues …]FTFGQGTKVEIK | 0.452 nM | – | 31.3 fold | 14.2 nM | –
3 | Ab9: monoclonal antibody binding proTGFβ1 complexes; VH SEQ ID NO: 214, VL SEQ ID NO: 211 (antibody, V domains shown) VH: QVQLVESGGGVVQPGGSLRLSCAASGFTFSSFAMTWVRQAPGKGLEWVSAISGSGAATYFADSVKGRFTISRDNSKNTLYLQMNSLRAEDTAVYYCARVSSGHWDFDYWGQGTLVTVSS VL: [… about 100 residues …]FTFGQGTKVEIK | 0.316 nM | – | 26.58 fold | 8.4 nM | –

More lines, main results first:

Row | Kd [2] | Kd [4] | Molecule | (H) G/D (fold bias) [1] | Kd (Cell-associated proTGFβ1) | (H) G/D (fold bias) [3]
4 | 0.316 nM | – | Ab8: monoclonal antibody binding proTGFβ1 complexes; VH SEQ ID NO: 212, VL SEQ ID NO: 211 (antibody, V domains shown) VH: QVQLVESGGGVVQPGRSLRLSCAASGFTFSDYAMVWVRQAPGKGLEWVSAISGSGFTTYYADSVKGRFTISRDNSKNTLYLQMNSLRAEDTAVYYCARVSSGHWDFDYWGQGTLVTVSS VL: [… about 100 residues …]FTFGQGTKVEIK | 40.25 fold | 12.7 nM | –
5 | 0.164 nM | 0.265 nM | Ab35: monoclonal antibody binding proTGFβ1 complexes; VH SEQ ID NO: 238, VL SEQ ID NO: 211 (antibody, V domains shown) VH: EVQLLESGGGLVQPGGSLRLSCAASGFTFRNYAMSWVRQAPGKGLEWVSSISGSGGATYYADSVKGRFTISRDNSKNTLYLQMNSLRAEDTAVYYCARVSSYLWDFDYWGQGTLVTVSS VL: [… about 100 residues …]FTFGQGTKVEIK | 24.13 fold | 3.96 nM | 4.15 fold
